This is an account of results in a collection of fitness landscapes (doi:10.1016/j.celrep.2020.107928).

The chains are these.
B1: Caulobacter ParB omega fusion; a variant is named by its letters at X, in order, B8GW30 (parent)
chain: MESVVVGEPGMSEGRRGLGRGLSALLGEVDAAPAQAPGEQLGGSREAPIEILQRNPDQPRRTFREEDLEDLSNSIREKGVLQPILVRPSPDTAGEYQIVAGERAWRAAQRAGLKTVPIMVRELDDLAVLEIGIIENVQRADLNVLEEALSYKVLMEKFERTQENIAQTIGKSXSHVANXMRLLXLPDEVQSYLVSGELTAXHARAIAAAADPVALAKQIIEGGLSVRETEALARKAPNLSAGKSKGGRPPRVKDTDTQALESDLSSVLGLDVSIDHRGSTGTLTITYATLEQLDDLCNRLTRGI

Over roughly 81,000 sequences, “one-hybrid fitness for binding parS DNA” has its median near -0.17; the highest 2% begin near 0.51. The list shows a part of the results.

The experiment covers variants of B1. Put plainly: one-hybrid fitness for binding parS DNA (scaled: cognate 1, non-cognate 0); higher = stronger binding. The following applies: with parS DNA site. In short, it runs like this: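 Selection: bacterial one-hybrid in E. coli USO, HIS3 reporter with the site 19 bp from the promoter, 48 hours at 37°C on M9-minus-histidine plus 0.1 mM IPTG and 5 mM 3-AT. Libraries were Caulobacter ParB with four randomised specificity codons, sequenced on Illumina before and after selection. Fitness is the rescaled log change in variant-to-wild-type read ratio, anchored to the cognate and non-cognate sites.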
As for VVWL, the “one-hybrid fitness for binding parS DNA” value is at most 0.2. In the case of VMVC it was at most 0.2; in that of ATTR, at most 0.2; in that of QLKF, at most 0.2.

For the variant FTFS, the “one-hybrid fitness for binding parS DNA” value is at most 0.2. In the case of DVGR it was at most 0.2; in that of PLLM, at most 0.2.

As to TLGK, the “one-hybrid fitness for binding parS DNA” value is at most 0.2. Under GRGV stands at most 0.2.

In the case of FSGC, the “one-hybrid fitness for binding parS DNA” value was at most 0.2.

With ISGS, the “one-hybrid fitness for binding parS DNA” value was at most 0.2. As for RCQA, the “one-hybrid fitness for binding parS DNA” value was 0.593. As for INCD, the “one-hybrid fitness for binding parS DNA” value was at most 0.2. Regarding SDVD, the “one-hybrid fitness for binding parS DNA” value was at most 0.2. Take YLLI: the “one-hybrid fitness for binding parS DNA” value is at most 0.2. In the case of VNVD it was at most 0.2; in that of PCCF, at most 0.2. Turning to IMYV, the “one-hybrid fitness for binding parS DNA” value was at most 0.2. Under QKKH stands at most 0.2. Regarding HGPK, the “one-hybrid fitness for binding parS DNA” value was at most 0.2.

PSNV: the “one-hybrid fitness for binding parS DNA” value was at most 0.2. Turning to WSQD, the “one-hybrid fitness for binding parS DNA” value is at most 0.2. With QRMQ, the “one-hybrid fitness for binding parS DNA” value is at most 0.2.

As for VNNH, the “one-hybrid fitness for binding parS DNA” value was at most 0.2. Under EHMC stands at most 0.2; under EFHT, at most 0.2. In the case of AFAC it was at most 0.2; in that of QAAV, at most 0.2. Regarding QEQC, the “one-hybrid fitness for binding parS DNA” value is at most 0.2. In the case of TGVM it was at most 0.2; in that of TLCS, at most 0.2; in that of FLNS, at most 0.2. In the case of HMSF it was at most 0.2; in that of SNIF, at most 0.2. In the case of ATIR, the “one-hybrid fitness for binding parS DNA” value is at most 0.2. As to GTLF, the “one-hybrid fitness for binding parS DNA” value is at most 0.2. As to RGFW, the “one-hybrid fitness for binding parS DNA” value was at most 0.2. In the case of WYCG, the “one-hybrid fitness for binding parS DNA” value is at most 0.2.

Turning to KVCG, the “one-hybrid fitness for binding parS DNA” value is at most 0.2. Regarding RYKT, the “one-hybrid fitness for binding parS DNA” value is 0.708.

Consider TQFL, for which the “one-hybrid fitness for binding parS DNA” value is at most 0.2.

Take KSAA: the “one-hybrid fitness for binding parS DNA” value was at most 0.2. YERA: the “one-hybrid fitness for binding parS DNA” value is at most 0.2.

For the variant HFRG, the “one-hybrid fitness for binding parS DNA” value came out at 0.245. Under QVAK stands at most 0.2; under CLLY, at most 0.2. For RFLF, the “one-hybrid fitness for binding parS DNA” value is at most 0.2.

Regarding GTTI, the “one-hybrid fitness for binding parS DNA” value was at most 0.2. Take HYWL: the “one-hybrid fitness for binding parS DNA” value was at most 0.2. In the case of SAHL it was at most 0.2; in that of YIHT, at most 0.2.

In the case of VNNL, the “one-hybrid fitness for binding parS DNA” value was at most 0.2. In the case of RHTD it was at most 0.2; in that of PVYM, at most 0.2. Take RLER: the “one-hybrid fitness for binding parS DNA” value was at most 0.2. Take MATC: the “one-hybrid fitness for binding parS DNA” value was at most 0.2. In the case of RYAE it was at most 0.2.

For VLNP, the “one-hybrid fitness for binding parS DNA” value is at most 0.2. For the variant HQVT, the “one-hybrid fitness for binding parS DNA” value is at most 0.2. In the case of APAH it was at most 0.2; in that of WGDA, at most 0.2. Consider RQGQ, for which the “one-hybrid fitness for binding parS DNA” value is at most 0.2. For the variant QVPN, the “one-hybrid fitness for binding parS DNA” value is at most 0.2. TSRS: the “one-hybrid fitness for binding parS DNA” value was at most 0.2. Under SAGL stands at most 0.2; under LVLI, at most 0.2.

In the case of TDWS, the “one-hybrid fitness for binding parS DNA” value is at most 0.2. In the case of DVDV it was at most 0.2; in that of HLSV, at most 0.2. On to PLSM, for which the “one-hybrid fitness for binding parS DNA” value was at most 0.2. Regarding QVTY, the “one-hybrid fitness for binding parS DNA” value was at most 0.2. Take NSSC: the “one-hybrid fitness for binding parS DNA” value is at most 0.2. Under FHYR stands at most 0.2; under TSWD, at most 0.2. Regarding WMTG, the “one-hybrid fitness for binding parS DNA” value was at most 0.2. With MMNS, the “one-hybrid fitness for binding parS DNA” value is at most 0.2. In the case of NIML it was at most 0.2; in that of AHGA, at most 0.2. In the case of PYWV it was at most 0.2; in that of PRQN, at most 0.2; in that of APSN, at most 0.2. With QQYL, the “one-hybrid fitness for binding parS DNA” value is at most 0.2. Under INHH stands at most 0.2; under LMAC, at most 0.2.

Turning to DVIL, the “one-hybrid fitness for binding parS DNA” value is at most 0.2. In the case of QHMG it was at most 0.2. In the case of CGWS it was at most 0.2; in that of NEVC, at most 0.2; in that of TEGM, at most 0.2.

In the case of RKRS, the “one-hybrid fitness for binding parS DNA” value amounted to 0.747. Under RMRW stands 0.586; under PFKI, at most 0.2; under SQCW, at most 0.2.

With AQVG, the “one-hybrid fitness for binding parS DNA” value was at most 0.2. Under NNHH stands at most 0.2; under QVEW, at most 0.2. As for SLWK, the “one-hybrid fitness for binding parS DNA” value is at most 0.2.

For PHLA, the “one-hybrid fitness for binding parS DNA” value was at most 0.2.

Regarding VVEN, the “one-hybrid fitness for binding parS DNA” value was at most 0.2. Regarding QPLH, the “one-hybrid fitness for binding parS DNA” value was at most 0.2. Consider PSWT, for which the “one-hybrid fitness for binding parS DNA” value was at most 0.2. In the case of AHAN it was at most 0.2. Under HACK stands at most 0.2; under PFIG, at most 0.2; under ALKW, at most 0.2. In the case of REMI, the “one-hybrid fitness for binding parS DNA” value is at most 0.2. In the case of KIFF it was at most 0.2; in that of MIEP, at most 0.2. Under TGMA stands at most 0.2.

APPS: the “one-hybrid fitness for binding parS DNA” value is at most 0.2. Consider RKTC, for which the “one-hybrid fitness for binding parS DNA” value turned out to be 0.793.

As for LEVT, the “one-hybrid fitness for binding parS DNA” value was at most 0.2.

In the case of SLDP, the “one-hybrid fitness for binding parS DNA” value is at most 0.2.

On to EHES, for which the “one-hybrid fitness for binding parS DNA” value was at most 0.2. On to MPPG, for which the “one-hybrid fitness for binding parS DNA” value is at most 0.2. Under HSSR stands at most 0.2; under HGQA, at most 0.2; under SNAD, at most 0.2. Under NAPD stands at most 0.2; under TEFD, at most 0.2; under DPPD, at most 0.2. Under INRF stands at most 0.2; under YDQL, 0.202. On to QAGD, for which the “one-hybrid fitness for binding parS DNA” value was at most 0.2.

Take LLMP: the “one-hybrid fitness for binding parS DNA” value was at most 0.2. WAIM: the “one-hybrid fitness for binding parS DNA” value is at most 0.2. In the case of RQHH it was 0.292; in that of ALVT, at most 0.2. With MGPF, the “one-hybrid fitness for binding parS DNA” value is at most 0.2.

Consider PIST, for which the “one-hybrid fitness for binding parS DNA” value was at most 0.2. Under FMKT stands at most 0.2. In the case of ETTS it was at most 0.2; in that of PQGR, at most 0.2. Under SSQL stands at most 0.2; under GTDS, at most 0.2. SAHG: the “one-hybrid fitness for binding parS DNA” value is at most 0.2. With VILN, the “one-hybrid fitness for binding parS DNA” value is at most 0.2. In the case of WQKY it was at most 0.2; in that of FIKK, at most 0.2; in that of FGTK, at most 0.2. In the case of TGSC it was at most 0.2; in that of DNEY, at most 0.2. Regarding HLRL, the “one-hybrid fitness for binding parS DNA” value was at most 0.2. In the case of GWHT, the “one-hybrid fitness for binding parS DNA” value is at most 0.2. With KRQG, the “one-hybrid fitness for binding parS DNA” value is at most 0.2. For VHGS, the “one-hybrid fitness for binding parS DNA” value was at most 0.2. Under PARQ stands at most 0.2; under ALWT, at most 0.2; under RMST, 0.945. For the variant RFSC, the “one-hybrid fitness for binding parS DNA” value was 0.935. As for RAAI, the “one-hybrid fitness for binding parS DNA” value was at most 0.2. Consider FRSF, for which the “one-hybrid fitness for binding parS DNA” value was at most 0.2. In the case of YTAS it was at most 0.2; in that of SQNW, at most 0.2; in that of QQKN, at most 0.2.

Regarding NMPR, the “one-hybrid fitness for binding parS DNA” value is at most 0.2. Take SPMM: the “one-hybrid fitness for binding parS DNA” value was at most 0.2. Turning to CGYT, the “one-hybrid fitness for binding parS DNA” value is at most 0.2. Turning to GAAS, the “one-hybrid fitness for binding parS DNA” value was at most 0.2. Under RPGI stands at most 0.2; under STAC, at most 0.2; under LTIM, at most 0.2.

Turning to YDDL, the “one-hybrid fitness for binding parS DNA” value is at most 0.2. In the case of LCKM it was at most 0.2; in that of NHTN, at most 0.2; in that of PGVN, at most 0.2. In the case of CVLH it was at most 0.2; in that of ILGR, at most 0.2; in that of YSLF, at most 0.2.

As to EGLT, the “one-hybrid fitness for binding parS DNA” value was at most 0.2. WCGS: the “one-hybrid fitness for binding parS DNA” value was at most 0.2. Under TGAC stands at most 0.2; under VLCC, at most 0.2.

With NFRE, the “one-hybrid fitness for binding parS DNA” value was at most 0.2. As to RQGE, the “one-hybrid fitness for binding parS DNA” value was at most 0.2. In the case of PSRL it was at most 0.2; in that of TMTC, at most 0.2; in that of VWIQ, at most 0.2. In the case of HHIV it was at most 0.2; in that of CWAR, at most 0.2. With APRL, the “one-hybrid fitness for binding parS DNA” value was at most 0.2. For the variant AIMV, the “one-hybrid fitness for binding parS DNA” value is at most 0.2. Under FSQC stands at most 0.2; under ALNE, at most 0.2.

Take CMMC: the “one-hybrid fitness for binding parS DNA” value was at most 0.2. In the case of PDDE it was at most 0.2; in that of CVKY, at most 0.2; in that of GCIF, at most 0.2.

As for NFWT, the “one-hybrid fitness for binding parS DNA” value is at most 0.2. IDCY: the “one-hybrid fitness for binding parS DNA” value was at most 0.2. On to TFRT, for which the “one-hybrid fitness for binding parS DNA” value was at most 0.2.

QNNY: the “one-hybrid fitness for binding parS DNA” value was at most 0.2.

For CNLM, the “one-hybrid fitness for binding parS DNA” value is at most 0.2.

For the variant PQNN, the “one-hybrid fitness for binding parS DNA” value was at most 0.2.

As to KIMG, the “one-hybrid fitness for binding parS DNA” value was at most 0.2.
